From the supplement of paper PMC8512760
Counter-ions that a name gives are not always drawn. The list shows a part of the results. Most values come without repeats; read them as rough.

Assays:
Assay in all cases: cell viability relative to vehicle (% of vehicle); basal-like triple-negative breast cancer lines; higher = less cytotoxic
Settings in all cases: 10 µM; 72 h
HCC-1143 = test system: HCC-1143
HCC-1187 = test system: HCC-1187
MDA-468 = test system: MDA-468
SUM-149 = test system: SUM-149
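Further: stably firefly luciferase-GFP labeled cells in 96-well plates, viability read as luciferase photon flux after d-luciferin addition, treated wells normalized to vehicle wells, single-dose high-throughput screen.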

| SMILES | cell viability (HCC-1143) | cell viability (HCC-1187) | cell viability (MDA-468) | cell viability (SUM-149) |
| --- | --- | --- | --- | --- |
| Cn1c([N+](=O)[O-])cnc1COC(N)=O [Ronidazole] | 74.1 | 80.8 | 101 | 111 |
| CCC1OC(=O)CC(O)C(C)C(OC2OC(C)C(O)C(N(C)C)C2O)C(CCN2CC(C)CC(C)C2)CC(C)C(=O)C=CC(C)=CC1COC1OC(C)C(O)C(OC)C1OC (centres undefined) [Tilmicosin] | 93.4 | 77.5 | 100 | 86.8 |
| C=CCNC(N)=S [Allylthiourea] | 74.1 | 88 | 120 | 134 |
| Nc1ccc(C(=O)NCC(=O)[O-])cc1.[Na+] [Sodium 4-amiropparaty Hyalrate] | 75.8 | 91.2 | 120 | 131 |
| N=C(N)c1ccc(OCCCCCOc2ccc(C(=N)N)cc2)cc1.O=S(=O)(O)CCO.O=S(=O)(O)CCO [Pentamidine isethionate] | 74.1 | 75 | 69.8 | 125 |
| CC(NC(=O)Cc1cc(F)cc(F)c1)C(=O)NC(C(=O)OC(C)(C)C)c1ccccc1 (centres undefined) | 94.8 | 98.3 | 97.9 | 121 |
| C=CC(=O)N1CCC(Oc2cc3c(Nc4ccc(Cl)c(Cl)c4F)ncnc3cc2OC)CC1 [Poziotinib] | 49.9 | 40.8 | 52.9 | 34.6 |
| CC(Nc1ncnc2nc[nH]c12)c1cc2cccc(Cl)c2c(=O)n1-c1ccccc1 (centres undefined) | 92.4 | 75.9 | 52.4 | 85.2 |
| CN(C)CC=CC(=O)Nc1cc2c(Nc3ccc(F)c(Cl)c3)ncnc2cc1OC1CCOC1.O=C(O)C=CC(=O)O.O=C(O)C=CC(=O)O (centres undefined) [Afatinib dimaleate] | 34.1 | 22.5 | 27.3 | 44.8 |
| CCCCCOc1ccc(-c2ccc(-c3ccc(C(=O)N[C@H]4C[C@@H](O)[C@@H](O)NC(=O)[C@@H]5[C@@H](O)[C@@H](C)CN5C(=O)[C@H]([C@@H](C)O)NC(=O)[C@H]([C@H](O)[C@@H](O)c5ccc(O)cc5)NC(=O)[C@@H]5C[C@@H](O)CN5C(=O)[C@H]([C@@H](C)O)NC4=O)cc3)cc2)cc1 [Anidulafungin] | 72.2 | 27 | 52.1 | 40.7 |
| Cc1cc(NS(=O)(=O)c2ccc(N)cc2)no1 [Sulfamethoxazole] | 134 | 98.9 | 88.5 | 111 |
| Cc1cc(C2CCCCC2)n(O)c(=O)c1 [Ciclopirox] | 58.7 | 50.7 | 31.6 | 7.88 |
| CN(C(=O)CN(CCO)CC(=O)N(C)C(C)(C)Cc1ccccc1)C(C)(C)Cc1ccccc1 [Oxethazaine] | 93.7 | 99.5 | 104 | 73.7 |
| NC(=O)N1c2ccccc2CC(=O)c2ccccc21 [Oxcarbazepine] | 79.6 | 84.9 | 128 | 114 |
| CC(O)C1C(=O)N2C(C(=O)O)=C(SC3CNC(C(=O)N(C)C)C3)C(C)C12.O.O.O (centres undefined) [Meropenem trihydrate] | 78.7 | 77 | 110 | 84.1 |
| COc1cc(OC)c(C=CS(=O)(=O)Cc2ccc(OC)c(NCC(=O)[O-])c2)c(OC)c1.[Na+] | 48.7 | 35.4 | 55.5 | 101 |
| CC(C)N=c1cc2n(-c3ccc(Cl)cc3)c3ccccc3nc-2cc1Nc1ccc(Cl)cc1 [Clofazimine] | 60.8 | 84.8 | 94.5 | 87.9 |
| COc1cc2c(cc1O)CCC1C2CCC2(C)C(O)CCC12 (centres undefined) [2-Methoxyestradiol (2-MeOE2)] | 115 | 44.1 | 105 | 174 |
| CN(CC=CC#CC(C)(C)C)Cc1cccc2ccccc12.Cl [Terbinafine HCl] | 99.2 | 83.3 | 104 | 109 |
| COc1cc2nc(N3CCN(C(=O)c4ccco4)CC3)nc(N)c2cc1OC.Cl [Prazosin HCl] | 103 | 44.5 | 48.7 | 116 |
| CC(C)C(=O)Nc1ccc([N+](=O)[O-])c(C(F)(F)F)c1 [Flutamide] | 82 | 93.3 | 107 | 119 |
| Brc1c(NC2=NCCN2)ccc2nccnc12.O=C(O)C(O)C(O)C(=O)O [Brimonidine Tartrate] | 94 | 112 | 115 | 92.5 |
| O=C(Oc1ccccc1C(=O)O)c1ccccc1O [Sasapyrine] | 90 | 108 | 101 | 106 |
| CN1CCCC1CCOC(C)(c1ccccc1)c1ccc(Cl)cc1.O=C(O)C=CC(=O)O (centres undefined) [Clemastine Fumarate] | 86.9 | 93.2 | 80.2 | 68.9 |
| COc1ccccc1OCC(O)COC(N)=O (centres undefined) [Methyocarbamol] | 88.1 | 124 | 110 | 94.3 |
| O=C([O-])C(O)C(O)C(O)C(O)C(O)CO.O=C([O-])C(O)C(O)C(O)C(O)C(O)CO.[Ca+2] (centres undefined) [Calcium Gluceptate] | 118 | 130 | 113 | 104 |

| SMILES | cell viability (HCC-1143) | cell viability (HCC-1187) | cell viability (MDA-468) | cell viability (SUM-149) |
| --- | --- | --- | --- | --- |
| CC(C)c1nc(N(C)S(C)(=O)=O)nc(-c2ccc(F)cc2)c1C=CC(O)CC(O)CC(=O)[O-].CC(C)c1nc(N(C)S(C)(=O)=O)nc(-c2ccc(F)cc2)c1C=CC(O)CC(O)CC(=O)[O-].[Ca+2] (centres undefined) [Rosuvastatin Calcium] | 73.9 | 81.9 | 90.6 | 83.8 |
| CCc1oc2ccccc2c1C(=O)c1cc(Br)c(O)c(Br)c1 [Benzbromarone] | 110 | 89.6 | 94.9 | 129 |
| Cc1nnc(C(=O)NC(C)(C)c2nc(C(=O)NCc3ccc(F)cc3)c(O)c(=O)n2C)o1 [Raltegravir (MK-0518)] | 88.4 | 86 | 93.9 | 130 |
| Nc1[nH]c(=O)ncc1F [Flucytosine] | 92.3 | 81.9 | 99.7 | 95 |
| CN1CCN(c2cc3c(cc2F)c(=O)c(C(=O)O)cn3-c2ccc(F)cc2)CC1 [Difloxacin HCl] | 77.7 | 75.1 | 79.5 | 120 |
| CC(=O)N=c1sc(S(N)(=O)=O)nn1C [Methazolamide] | 127 | 93.7 | 97.1 | 102 |
| CCN(CC)CC(=O)Nc1c(C)cccc1C [Lidocaine] | 57.4 | 88.1 | 84.1 | 94 |
| S=C(NCc1ccc2c(c1)OCO2)N1CCN(c2ncnc3c2oc2ccccc23)CC1 [Amuvatinib (MP-470, HPK 56)] | 73.5 | 84.8 | 71.4 | 114 |
| CNCC(O)c1ccc(O)c(O)c1 [L-Adrenaline] | 123 | 138 | 151 | 112 |
| Cc1c(C(=O)NN2CCCCC2)nn(-c2ccc(Cl)cc2Cl)c1-c1ccc(Cl)cc1 [Rimonabant] | 85.1 | 78.2 | 92.5 | 124 |
| CN1CCC(=C2c3ccccc3C=Cc3ccccc32)CC1.Cl [Cyproheptadine hydrochloride] | 74.7 | 105 | 139 | 85.4 |
| OCC1OC(c2ccc(Cl)c(Cc3ccc(OC4CCOC4)cc3)c2)C(O)C(O)C1O (centres undefined) | 78.1 | 98.9 | 108 | 109 |
| Cc1ccc(O)c(C(CCN(C(C)C)C(C)C)c2ccccc2)c1.O=C(O)C(O)C(O)C(=O)O (centres undefined) [Tolterodine tartrate] | 93.4 | 93.1 | 112 | 107 |
| Cl.Clc1ccccc1CN1CCc2sccc2C1 [Ticlopidine HCl] | 76.1 | 72 | 101 | 87.9 |
| CCNC1CC(C)S(=O)(=O)c2sc(S(N)(=O)=O)cc21.Cl (centres undefined) [Dorzolamide HCl] | 103 | 83.6 | 88.7 | 92.4 |
| CC1c2cccc(O)c2C(O)=C2C(=O)C3(O)C(O)=C(C(N)=O)C(=O)C(N(C)C)C3C(O)C21.Cl (centres undefined) [Doxycycline hyclate] | 76.4 | 62.2 | 66.4 | 93.5 |
| CC1CCN(C(=O)CC#N)CC1N(C)c1ncnc2[nH]ccc12 (centres undefined) | 73.6 | 58.6 | 56.3 | 101 |
| CCCNCC(O)COc1ccccc1C(=O)CCc1ccccc1.Cl (centres undefined) [Propafenone HCl] | 70.6 | 108 | 143 | 99.4 |
| CN(C)c1ccc(C(=C2C=CC(=[N+](C)C)C=C2)c2ccc(N(C)C)cc2)cc1.[Cl-] [Crystal Violet] | 20.1 | 19.7 | 29 | 28.9 |
| COC(=O)C1=C(C)NC(C)=C(C(=O)OC(C)C)C1c1cccc2nonc12 (centres undefined) [Isradipine (Dynacirc)] | 116 | 99.5 | 109 | 98.8 |
| CCC1OC(=O)C(C)C(OC2CC(C)(OC)C(O)C(C)O2)C(C)C(OC2OC(C)CC(N(C)C)C2O)C(C)(O)CC(C)CN(C)C(C)C(O)C1(C)O (centres undefined) [Azithromycin] | 118 | 118 | 118 | 125 |
| COc1ccc2c(c1)c(CC(=O)O)c(C)n2C(=O)c1ccc(Cl)cc1 [Indomethacin] | 81.7 | 78.5 | 102 | 101 |
| CCCCCCOC(=O)N=C(N)c1ccc(NCc2nc3cc(C(=O)N(CCC(=O)OCC)c4ccccn4)ccc3n2C)cc1.CS(=O)(=O)O [Dabigatran etexilate mesylate] | 94.8 | 114 | 89.1 | 134 |
| CC(C)(C)NCC(O)c1cc(O)cc(O)c1.CC(C)(C)NCC(O)c1cc(O)cc(O)c1.O=S(=O)(O)O (centres undefined) [Terbutaline Sulfate] | 97.2 | 115 | 164 | 77.9 |
| CC(C)(O/N=C(\C(=O)N[C@@H]1C(=O)N2C(C(=O)[O-])=C(C[n+]3ccccc3)CS[C@H]12)c1csc(N)n1)C(=O)O [Ceftazidime] | 98.7 | 94.4 | 109 | 122 |
